Assay results published in patent US20170212130A1 (ROCKEFELLER UNIVERSITY, published 2017).

Columns and labels:
[1] = target: T1, mCherry (Discosoma); assay: SPR, mCherry immobilized
T1 construct: Immunogen is mCherry-His6; SPR says recombinant mCherry; also called recombinant mCherry-His6; Discosoma mCherry

[2] = target: T1, mCherry; assay: label under gel lane; legend: in vitro Kd for mCherry by SPR
[3] = target: T2, GFP-His6 (eGFP) (Aequorea victoria, UniProt P42212 = GFP); assay: bead binding: nanobody-Dynabeads + fluorescent protein, eluate on SDS-PAGE
T2 construct: SPR and bead assays speak only of recombinant GFP or eGFP; also called recombinant GFP; A. victoria (Av) GFP

[4] = target: T3, DsRed (Discosoma sp., UniProt Q9U6Y8 1-225); assay: as above
T3 construct: Recombinant fluorescent protein; construct not described; also called standard DsRed; DsRed from Discosoma (Ds)

Chain of DsRed (Q9U6Y8 whole entry): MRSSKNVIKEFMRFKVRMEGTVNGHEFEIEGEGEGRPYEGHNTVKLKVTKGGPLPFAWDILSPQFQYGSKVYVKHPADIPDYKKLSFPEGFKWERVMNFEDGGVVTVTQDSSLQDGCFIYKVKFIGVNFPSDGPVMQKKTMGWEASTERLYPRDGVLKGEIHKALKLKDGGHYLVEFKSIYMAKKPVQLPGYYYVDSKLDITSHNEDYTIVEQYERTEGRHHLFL

Binder	Kd [1] [nM]	Kd [2] [nM]	binding result [3]	binding result [4]
LaM-2 (VHH) VHH: QVQLVESGGGLVQAGGSLRLSCATSGFTFSDYAMGWFRQAPGKEREFVAAISWSGHVTDYADSVKGRFTISRDNVKNTVYLQMNSLKPEDTAVYSCAAAKSGTWWYQRSENDFGSWGQGTQVTVSK	0.49	0.49	no binding	no binding
LaM-4 (VHH) VHH: QVQLVESGGSLVQPGGSLRLSCAASGRFAESSSMGWFRQAPGKEREFVAAISWSGGATNYADSAKGRFTLSRDNTKNTVYLQMNSLKPDDTAVYYCAANLGNYISSNQRLYGYWGQGTQVTVSS	0.18	0.18	no binding	–
